Source: PubChem BioAssay AID1347073 (National Center for Advancing Translational Sciences (NCATS), 2019)
Among all 45,000 compounds or so, about 200 (0.44%) were called active. Roughly 7% stayed inconclusive and do not appear here. Calls come from the whole dose curve; as a rule, active = well fitted activation curve with a large enough effect; inconclusive = small, poorly fitted or top-dose-only effect; inactive = no such curve, though single readings can be large or run the other way. The list shows a part of the results.

Assay: qHTS of TDP-43 Inhibitors: NCGC Sytravon Library Screen; note: 0% is about no effect; nearly all actives have a fitted effect of over 55% in size
Conditions: yeast TDP-43 toxicity rescue, BacTiter-Glo growth, 24 h; series mostly up to 46.1 µM; growth rescue (activation): at the top concentration
Summary of the method: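 TDP-43-expressing yeast, pregrown in raffinose, seeded at OD600 0.02 in galactose medium with compound for 24 hr at 30 deg C. Growth read by BacTiter-Glo luminescence, so rescue of toxicity appears as activation.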

SMILES | growth rescue (activation)
Cc1ccc(C(=O)NCCNC(=O)c2ccc(F)cc2)cn1 | inactive: 2.76%
CCOC(=O)c1cc2n(n1)C(C(F)(F)F)CC(C)N2 (stereo not given) | inactive: 0.536%
CCOC(=O)CSc1ccc(C(=O)Nc2ccc(OC)cc2)cn1 | inactive: 10.4%
COc1cc(/C=N/NC(=O)c2ccncc2)ccc1OCC(=O)Nc1ccccc1 | inactive: -17.2%
CCOC(=O)C1CCN(C(=O)Cc2ccc(OC)c(OC)c2)CC1 | inactive: 6.28%
CC(C)Sc1nc2c(cnn2-c2ccc(Cl)cc2)c(=O)[nH]1 | inactive: -3.44%
COc1ccc(-c2cnc(N)nc2-c2ccc(OCc3ccccc3)cc2O)cc1 | inactive: 33.2%
CC(C)NC(=O)CSc1c2c(nc3ccccc13)CCCC2 | inactive: -7.94%
CCS(=O)(=O)N1Cc2ccccc2CC1C(=O)Nc1ncc(C)s1 (stereo not given) | inactive: 2.33%
Cc1ccccc1-c1cnc(C(O)c2c(C)cccc2C)[nH]1 (stereo not given) | inactive: -12.8%
Cc1ccc(/C=N/Nc2nnc(Cc3ccccc3)c(=O)[nH]2)o1 | inactive: 6.95%
O=C(Nc1ccc2oc(-c3ccccc3F)nc2c1)c1ccco1 | inactive: 23.2%
CCN(CC(=O)Nc1ccccc1C(F)(F)F)C(=O)CCc1ccccc1 | inactive: 18.3%
O=C(Nc1cccc(Cl)c1)c1ccc2sc([C@H]3C[C@H](O)[C@@H](CO)O3)nc2c1 | inactive: -4.79%
COCCn1c(C(F)(F)F)ccc(NC(=O)c2ccccc2)c1=O | inactive: 7.89%
Cc1cc(C)cc(OCC(=O)N/N=C/c2ccncc2)c1 | inactive: -13.9%
CCOc1ccccc1-c1nnc(SCC(=O)NC2CC3CCC2C3)n1CC (stereo not given) | inactive: -10.7%
O=C(O)c1ccc(N2CC3CC(C2)c2cccc(=O)n2C3)c(NS(=O)(=O)c2cccc(C(F)(F)F)c2)c1 (stereo not given) | inactive: 3.82%
CCN(CC)CCn1c(NCc2ccc(C)o2)nc2ccccc21 | inactive: 8.74%
COCCNC(=O)C(Cc1c[nH]c2ccccc12)NC(=O)OCc1ccccc1 (stereo not given) | inactive: 2.35%
CNC(=S)N(Cc1cccs1)Cc1cc2ccc(OC)cc2[nH]c1=O | inactive: 2.67%
Cc1csc(CN(C)C(=O)CC2C(=O)NCCN2Cc2ccc(-c3ccccc3)cc2)n1 (stereo not given) | inactive: 13.3%
CC1CC(C)CN(C(=O)C(C)N2CCN(S(=O)(=O)c3ccccc3F)CC2)C1 (stereo not given) | inactive: 6.03%
O=C1/C(=C\c2ccco2)NC(=S)N1c1ccccc1 | inactive: -17.5%
O=C(NC1CCCc2ccccc21)c1cn2ccccc2n1 (stereo not given) | inactive: 13.7%
Cc1cccc(-c2noc(CN(C)C(=O)c3ccco3)n2)c1 | inactive: 10.9%
CN(Cc1cccnc1)C(=O)Cc1ccc(NS(=O)(=O)c2cccc(C(F)(F)F)c2)cc1 | inactive: -0.142%

SMILES | growth rescue (activation)
CC(=O)c1ccc(N2CCN(C(=O)C3CCN(S(=O)(=O)c4cccs4)CC3)CC2)cc1 | inactive: 8.26%
Cc1cccc(NC(=O)CN2C(=O)NC3(CCCCCCC3)C2=O)c1C | inactive: -27.9%
CCOc1ccc(S(=O)(=O)NCc2ccccn2)c(C)c1C | inactive: 3.2%
CCc1nc2ccc(C(=O)NCCOc3ccc(OC)cc3)cn2c1N(CCC(C)C)CCN(C)C | inactive: -19.3%
C=CCC1NCCc2c(Br)cccc21 (stereo not given) | inactive: 9.15%
CCCn1c(C)nc2c(c1=O)c1nc3ccccc3nc1n2-c1ccccc1 | inactive: -8.06%
CC(=O)OC[C@@H]1CN(Cc2ccccc2)C[C@H](n2cnc3c(NCC(C)C)ncnc32)O1 | inactive: -5.83%
CC1(C(=O)NCc2cccnc2)Cc2c(-c3cccc(C(F)(F)F)c3)ccnc2O1 (stereo not given) | inactive: 12.9%
CN(C)S(=O)(=O)c1cccc(C(=O)Nc2ccc(N3CCOCC3)cc2)c1 | inactive: -5.53%
COc1cccc(N(C(=O)c2ccco2)C(C(=O)NC2CCCC2)c2ccc(N3CCOCC3)cc2)c1 (stereo not given) | inactive: -2.53%
CCC(C)(C)NC(=O)C(c1ccccn1)N(C(=O)c1csnn1)c1ccc(C)cc1 (stereo not given) | inactive: 1.83%
Cc1ccc(C)c(N(CC(=O)NCc2ccco2)C(=O)CNS(=O)(=O)c2ccccc2)c1 | inactive: -3.68%
Cc1ccc(S(=O)(=O)N2CC(=O)Nc3ccccc32)c(C)c1NS(C)(=O)=O | inactive: 3.17%
CCC(=O)Nc1ccc(C(=O)NNC(=O)C(c2ccccc2)c2ccccc2)cc1 | inactive: 3.37%
O=C1C(=O)N(CCN2CCOCC2)C(c2cccnc2)/C1=C(/O)c1ccc(Cl)cc1 (stereo not given) | inactive: 12.6%
C=C(C)c1cccc(C(C)(C)NC(=O)N2CCN(c3ncccn3)CC2)c1 | inactive: 2.15%
CC(=O)Nc1ccc(NS(=O)(=O)c2ccc(Cl)s2)cc1 | inactive: 13.5%
O=C(COC(=O)/C=C/c1ccco1)NCc1ccco1 | inactive: -9.55%
N#Cc1ccccc1CSc1ncccc1C(=O)O | inactive: -0.0093%
CC1C/C(=C\c2ccccc2[N+](=O)[O-])c2nc3ccccc3c(C(=O)O)c2C1 (stereo not given) | inactive: -7.75%
CCCC(=O)N1CCN(c2ccc(NC(=O)c3ccc(N4CCCC4)c([N+](=O)[O-])c3)cc2Cl)CC1 | inactive: 26.3%
CC1=C(C(=O)N2CCCC(CCC(=O)NCc3ccccc3F)C2)OCCO1 (stereo not given) | inactive: 3.72%
COc1ccccc1OCC(=O)Nc1ccc(S(=O)(=O)Nc2onc(C)c2C)cc1 | inactive: 9.55%
CC1CCCCC1NC(=O)CSc1nc2ccccc2[nH]1 (stereo not given) | inactive: 4.75%
Cc1ccc(N2CC(C(=O)N3CCC(C(=O)Nc4cccc(Br)c4)CC3)CC2=O)cc1 (stereo not given) | inactive: 3.84%
CCOC(=O)c1nnn(-c2nc(OC)nc(N3CCCC3)n2)c1-c1ccccc1 | inactive: 24.5%
CCSc1ncc(Cl)c(C(=O)N(Cc2ccccc2)Cc2ccco2)n1 | inactive: 15.1%

SMILES | growth rescue (activation)
COc1ccc(CCNC/C=C/c2ccccc2)cc1 | inactive: 4.17%
Cn1c(O)c(C2=c3ccccc3=NC2=O)[nH]c1=S | inactive: -0.429%
O=C(c1ccc2c3c(cccc13)CC2)C1CCCN(Cc2ccccn2)C1 (stereo not given) | inactive: -7.88%
Cc1ccc(NC(=O)C2C3C=CC4(O3)C2C(=O)N(CCN2CCOCC2)C4C(=O)NC2CCCCC2)cc1C (stereo not given) | inactive: -1.88%
Cc1cc(NC(=O)COC(=O)c2ccc(C)c(C)c2)no1 | inactive: 14.1%
CC1(C)CC(=O)C2=C(C1)NC1=C(C(=O)c3ccccc31)C2c1ccc(O)cc1 (stereo not given) | inactive: 18.1%
N#Cc1c(NC(=O)C2CCCO2)sc2c1CCCCC2 (stereo not given) | inactive: 22.8%
Cc1ccc(/C=C/C(=O)O)cc1S(=O)(=O)NCc1ccco1 | inactive: 3.53%
O=C(COC(=O)c1cccc(Cl)c1)NC(=O)NCc1ccccc1 | inactive: 10.4%
Cc1onc(-c2ccccc2)c1C(=O)NC(=S)Nc1sc2c(c1C#N)CCC(C)C2 (stereo not given) | inactive: -0.927%
O=C(Nc1cccc(C(=O)N2CCOCC2)c1)c1ccccc1Br | inactive: 10.2%
COc1ccccc1NC(=O)N1CCN(C(=O)c2ccco2)CC1 | inactive: 11%
O=C(Cc1cc(=O)oc2cc(O)ccc12)N[C@@H](Cc1c[nH]c2ccccc12)C(=O)O | inactive: -11.1%
CCOC(=O)c1c(C)[nH]c(C(=O)CSc2nnc(Nc3ccccc3F)s2)c1C | inactive: -20.2%
CCOc1ccc(S(=O)(=O)n2ccc(C)n2)cc1 | inactive: 5.65%
CC(=O)c1cccc(NC(=O)CN(C)S(=O)(=O)c2ccccc2)c1 | inactive: 5%
COC(=O)[C@H](CCSC)NC(=O)Nc1ccc(OC)cc1 | inactive: 24.8%
CCOC(=O)C(=Cc1cn(C)c2ccc(S(=O)(=O)N(C)C)cc12)C(=O)OCC | inactive: -4.43%
CCOC(=O)C1=C(c2ccccc2)Nc2ncnn2C1c1ccc(O)cc1 (stereo not given) | inactive: 6.45%
COc1ccc(C(=O)OCC[N+]2(C)CCOCC2)cc1 | inactive: -2.36%
COc1ccc(/C=N/NC(=O)CCc2n[nH]c(=O)[nH]c2=O)cc1OC | inactive: -6.69%
Cc1cccc(NC(=O)c2cc(-c3c(C)cc(C)cc3O)n[nH]2)c1 | inactive: 7.33%
COc1ccc(C(=O)O)cc1S(=O)(=O)Nc1ccc2cn[nH]c2c1 | inactive: 12.7%
CC(=O)C1=C(O)C(=O)N(Cc2ccccc2)C1c1ccc(Br)cc1 (stereo not given) | inactive: 2.48%
COc1ccc(NC(=O)CN2CCN(C(=O)N3CCOCC3)CC2)cc1 | inactive: -11.6%
CC(C)(C)N(Cc1ccccc1)C(=O)COC(=O)Cn1cnc2ccccc2c1=O | inactive: 14.2%
COc1ccc(-c2nnc(SCC(=O)c3ccc[nH]3)n2-c2ccccc2)cc1 | inactive: 7.49%

SMILES | growth rescue (activation)
Cc1ccc(N2CCC(N3CCN(C4CCCCC4)C(CCO)C3)CC2)cc1 (stereo not given) | inactive: -7.32%
Cc1cccc(C)c1NC(=O)COC(=O)c1ccc(N2CCCC2)c([N+](=O)[O-])c1 | inactive: 15.8%
Cc1[nH]c(=O)[nH]c(=O)c1Sc1ccccc1[N+](=O)[O-] | inactive: 7.64%
COC(=O)c1ccc(COC(=O)c2nn(C)c(=O)c3ccccc23)cc1 | inactive: 9.14%
COc1ccc(NS(=O)(=O)c2cccc(Cl)c2Cl)cc1S(=O)(=O)N1CCCCC1 | inactive: 21%
COc1ccc(C)cc1S(=O)(=O)n1ccnc1C | inactive: 10.9%
Cc1ccc(C(=O)O)cc1NC(=S)NC(=O)c1ccc(-c2ccccc2)cc1 | inactive: 9.6%
COc1ccc(/C=C(\NC(=O)c2ccco2)C(=O)N2CCCCC2)cc1 | inactive: 3.95%
CCOc1ccc(C(=O)NC2CCN(C(=O)Nc3ccc(F)cc3)CC2)cc1 | inactive: 12.5%
COc1ccc(Cc2cnc(N)s2)cc1 | inactive: 14.4%
O=S(=O)(NC(=NC1CCCCC1)c1ccccc1)c1ccc(F)cc1 | inactive: 13.9%
Cc1ccc(NC(=O)[C@@H]2CCCN2S(=O)(=O)c2ccccc2F)cc1S(=O)(=O)N1CCOCC1 | inactive: 1.85%
Cc1ccc(C)c(N2N=C(C(=O)Nc3cccc(S(=O)(=O)N4CCCCC4)c3)CCC2=O)c1 | inactive: 22.7%
CCCc1nc(SCC(=O)Nc2nccs2)c2ccccc2n1 | inactive: 19.1%
Cc1cc(C)n(CCN(C)C(=O)CCc2nnc(-c3ccc4c(c3)OCO4)o2)n1 | inactive: -8.8%
Cc1cc(C)cc(C(=O)OCC(=O)NCc2ccco2)c1 | inactive: 3.93%
CC(C(=O)N(C)Cc1ccccc1)N1CCN(C/C=C/c2ccccc2)CC1 (stereo not given) | inactive: -5.71%
COc1ccc(N2CCN(C(=O)c3cc4c(s3)-c3ccccc3S(=O)(=O)C4)CC2)cc1 | inactive: -3.1%
O=C(COC(=O)C1CCC(=O)N1)Nc1cc(Cl)ccc1Cl (stereo not given) | inactive: 16.2%
COc1ccc2nc(C)cc(SCC(=O)N/N=C/c3ccc(O)cc3O)c2c1 | inactive: 15.2%
COc1ccccc1CNc1nc(NCc2ccccc2OC)c2sccc2n1 | inactive: 6.53%
Cc1cc(C)cc(NC(=O)NC2CCN(CC(=O)Nc3cccc(Cl)c3C)CC2)c1 | inactive: 5.46%
COc1ccc(C(=O)C2CCCN(C(=O)c3cc(C)nc(C)n3)C2)cc1OC (stereo not given) | inactive: 12.3%
N#C/C(=C\c1ccccc1)C(=O)NNS(=O)(=O)c1ccc(Br)cc1 | inactive: 25.2%
